Source: paper PMC7138916 (Pharmacology Research & Perspectives, 2020)

Key:
[1] = Bidirectional permeability in parental MDCK cells; assay type: in vitro ADME, Canine; conditions: dog
[2] = biological target: human P-gp (MDR1) (Homo sapiens, UniProt P08183); assay: Bidirectional permeability and efflux ratio in MDR1‐MDCK cells; assay type: in vitro ADME
[3] = Bidirectional permeability and efflux ratio in Caco‐2 cells; assay type: in vitro ADME; conditions: human
[4] = Rat pharmacokinetic study, IV single bolus; conditions: male, Sprague-Dawley, in vivo
[5] = Rat brain and blood microdialysis at steady state; conditions: male, Sprague-Dawley, in vivo, iv, C m,brain, steady‐state unbound concentration in brain (right striatum), IV infusion, mean ± SD
[6] = rat microdialysis; ref 8 (Chen et al); cited from earlier work

Sequence of human P-gp (MDR1) (P08183 whole entry): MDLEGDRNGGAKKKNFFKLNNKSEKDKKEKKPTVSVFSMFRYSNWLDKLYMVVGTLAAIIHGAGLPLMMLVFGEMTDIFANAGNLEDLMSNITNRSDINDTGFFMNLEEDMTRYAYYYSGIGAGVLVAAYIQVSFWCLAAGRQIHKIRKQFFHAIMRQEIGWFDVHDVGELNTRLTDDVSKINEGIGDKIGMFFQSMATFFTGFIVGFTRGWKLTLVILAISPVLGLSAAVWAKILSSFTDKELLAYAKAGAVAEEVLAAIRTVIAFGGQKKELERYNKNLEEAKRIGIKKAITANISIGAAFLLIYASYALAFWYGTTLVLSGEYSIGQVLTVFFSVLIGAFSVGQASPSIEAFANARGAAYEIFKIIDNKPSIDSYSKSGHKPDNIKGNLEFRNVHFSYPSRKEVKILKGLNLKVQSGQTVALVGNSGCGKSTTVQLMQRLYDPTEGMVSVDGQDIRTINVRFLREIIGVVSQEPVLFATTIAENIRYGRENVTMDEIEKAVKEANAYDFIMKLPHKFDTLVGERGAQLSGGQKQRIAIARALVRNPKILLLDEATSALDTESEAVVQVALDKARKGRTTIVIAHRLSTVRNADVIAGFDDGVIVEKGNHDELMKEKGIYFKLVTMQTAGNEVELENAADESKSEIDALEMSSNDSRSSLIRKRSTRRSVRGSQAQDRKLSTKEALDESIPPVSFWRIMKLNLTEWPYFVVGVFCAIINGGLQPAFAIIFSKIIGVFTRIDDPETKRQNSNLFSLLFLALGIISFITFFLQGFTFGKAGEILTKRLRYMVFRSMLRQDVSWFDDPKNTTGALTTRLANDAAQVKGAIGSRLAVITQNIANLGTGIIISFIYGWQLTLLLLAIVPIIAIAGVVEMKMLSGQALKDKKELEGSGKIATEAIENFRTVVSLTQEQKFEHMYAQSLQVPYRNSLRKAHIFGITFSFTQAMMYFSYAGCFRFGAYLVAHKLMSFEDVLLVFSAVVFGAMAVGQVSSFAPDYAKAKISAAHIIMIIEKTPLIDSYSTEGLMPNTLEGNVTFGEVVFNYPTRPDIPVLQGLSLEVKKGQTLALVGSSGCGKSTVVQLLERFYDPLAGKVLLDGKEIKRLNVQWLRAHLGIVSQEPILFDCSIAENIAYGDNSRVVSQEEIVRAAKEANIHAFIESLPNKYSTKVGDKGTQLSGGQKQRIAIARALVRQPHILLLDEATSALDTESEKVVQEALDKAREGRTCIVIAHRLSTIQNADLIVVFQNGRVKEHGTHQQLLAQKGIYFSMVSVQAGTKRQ

Papp A→B at 2 h, 1 μmol/L [1] [×10⁻⁶ cm/s]	Papp B→A at 2 h, 1 μmol/L [1] [×10⁻⁶ cm/s]	Papp at 2 h, 1 μmol/L [1] [×10⁻⁶ cm/s]	Papp A→B at 2 h, 1 μmol/L [2] [×10⁻⁶ cm/s]	Papp B→A at 2 h, 1 μmol/L [2] [×10⁻⁶ cm/s]	Papp A→B at 2 h, 5 μmol/L [3] [×10⁻⁶ cm/s]	Papp B→A at 2 h, 5 μmol/L [3] [×10⁻⁶ cm/s]	Vd [4] [L/kg]	clearance [4] [mL/min/kg]	concentration at 6 h [5] [nM]	Compound	K p,uu,brain [6]
0.843 ± 0.67	1.9 ± 0.43	1.37 ± 0.77	2.5 ± 2.33	1.04 ± 1.06	0.398 ± 0.114	0.595 ± 0.021	2.88 ± 0.44	24.5 ± 3.7	1200 ± 430	CC(C)NCC(O)COc1ccc(CC(N)=O)cc1 (stereo not shown) [Atenolol, atenolol]	–
–	–	–	–	–	–	–	1.56 ± 0.38	50.9 ± 6.1	–	CC(C)(C(=O)O)c1ccc(C(O)CCCN2CCC(C(O)(c3ccccc3)c3ccccc3)CC2)cc1 (stereo not shown) [Fexofenadine]	–
–	–	–	–	–	–	–	–	–	–	CC(C)NC[C@H](O)COc1ccc(CC(N)=O)cc1 [S‐atenolol]	about 0.04
